# From paper PMC4336329 (PLoS ONE, 2015)
# Hit rate of the full screen: of about 310,000 compounds, about 14,000 (4.5%) showed an effect of 50% or more. The effect is printed as a negative number. Some of the results follow.
# Target: human ether-à-go-go-related gene (hERG) potassium channel (human, UniProt Q12809)
# Test: primary screen, population patch clamp on CHO cells stably expressing hERG
# 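Note: peak tail current of the secondary pulse compared with the same well before compound.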
# human ether-à-go-go-related gene (hERG) potassium channel, sequence (Q12809 whole entry, looked up): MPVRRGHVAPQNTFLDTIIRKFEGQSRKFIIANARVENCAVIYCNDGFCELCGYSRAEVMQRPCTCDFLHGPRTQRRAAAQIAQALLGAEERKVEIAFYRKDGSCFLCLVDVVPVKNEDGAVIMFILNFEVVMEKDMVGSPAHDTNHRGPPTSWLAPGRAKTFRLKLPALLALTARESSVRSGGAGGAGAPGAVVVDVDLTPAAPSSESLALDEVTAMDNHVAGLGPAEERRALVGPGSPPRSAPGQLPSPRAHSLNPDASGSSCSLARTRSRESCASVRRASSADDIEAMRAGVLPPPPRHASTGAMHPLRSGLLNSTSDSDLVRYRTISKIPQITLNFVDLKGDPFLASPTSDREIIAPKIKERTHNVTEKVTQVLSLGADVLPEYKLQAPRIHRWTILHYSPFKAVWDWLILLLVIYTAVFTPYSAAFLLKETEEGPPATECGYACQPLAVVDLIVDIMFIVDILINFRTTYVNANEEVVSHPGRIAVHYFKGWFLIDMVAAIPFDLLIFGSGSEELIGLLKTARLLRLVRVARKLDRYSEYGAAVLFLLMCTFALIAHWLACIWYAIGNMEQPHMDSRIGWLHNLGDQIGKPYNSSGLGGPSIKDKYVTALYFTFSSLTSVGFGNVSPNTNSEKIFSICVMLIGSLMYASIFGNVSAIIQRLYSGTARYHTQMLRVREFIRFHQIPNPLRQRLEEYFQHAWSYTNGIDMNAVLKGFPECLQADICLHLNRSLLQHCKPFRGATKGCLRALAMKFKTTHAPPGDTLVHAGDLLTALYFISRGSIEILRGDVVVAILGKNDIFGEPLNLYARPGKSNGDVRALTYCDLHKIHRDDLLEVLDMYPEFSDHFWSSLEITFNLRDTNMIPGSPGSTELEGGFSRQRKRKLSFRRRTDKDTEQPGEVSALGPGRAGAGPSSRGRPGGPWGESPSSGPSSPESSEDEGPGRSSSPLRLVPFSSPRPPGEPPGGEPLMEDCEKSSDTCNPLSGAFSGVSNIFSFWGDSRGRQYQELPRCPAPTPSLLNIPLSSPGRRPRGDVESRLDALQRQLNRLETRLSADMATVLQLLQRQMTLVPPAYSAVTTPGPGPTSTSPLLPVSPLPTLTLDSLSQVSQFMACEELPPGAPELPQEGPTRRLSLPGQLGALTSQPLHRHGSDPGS
row,Compound,"hERG current change (%, negative = inhibition) at 10uM [%]"
1,OC(Cc1ccncc1)(c1ccccc1)c1ccccc1,-5.91
2,COc1ccc(C2C(C(N)=O)=C(C)Nc3nc(CCCO)nn32)cc1OC (stereo not drawn),18.8
3,CCN(CC)C(=O)C(=O)Nc1ccc(OCc2ccccc2)cc1,3.57
4,Cc1sc2nc(CSCC(=O)Nc3ccc(N4CCOCC4)cc3)[nH]c(=O)c2c1C,-9.94
5,COc1ccc(C(=O)O)cc1NC(=S)NC(=O)C(c1ccccc1)c1ccccc1,11.9
6,COc1ccccc1-n1cc(CN2CCCC(CO)(Cc3cccc(Cl)c3)C2)cn1 (stereo not drawn),-49.5
7,COc1ccc(NC(=O)c2c(Cl)nc3ccccn23)cc1,-7.94
8,Cc1cccc(N(C)S(=O)(=O)c2ccc3[nH]c(=O)c(=O)[nH]c3c2)c1,8.14
9,Cc1ccccc1OCC(=O)Nc1nc(-c2ccncc2)cs1,0.61
10,COc1ccc(S(=O)(=O)Nc2cccc(NC(C)=O)c2)cc1,-6.58
11,O=C(Nc1ccncc1)C1CCCN(S(=O)(=O)c2cccc3cccnc23)C1 (stereo not drawn),-15
12,CC1CCC(=NNC(=O)Cc2ccccc2)CC1 (stereo not drawn),10.9
13,Cc1ccc(S(=O)(=O)N2CCOCC2)cc1NC(=O)C1CC(=O)N(c2ccc3c(c2)OCCO3)C1 (stereo not drawn),16.5
14,O=C(NCc1ccco1)C1CC(=O)N(c2ccc(F)cc2)C1 (stereo not drawn),-21.4
15,COc1ccc(-c2nc3cc(NC(=O)Cc4ccc(OC)c(OC)c4)ccc3o2)cc1,-2.92
16,Cc1ccc(-c2cc3ccccc3nc2N2CCOCC2)cc1,10.2
17,COc1ccc(CNC(=O)C2CCCN2C(=O)NC2CCCCC2)cc1 (stereo not drawn),-16.2
18,NS(=O)(=O)c1cccc(NC(=O)COC(=O)COc2ccc3ccccc3c2)c1,5.27
19,COc1ccc(OC)c(C2=Nn3c(nnc3-c3cc(C)[nH]n3)SC2)c1,-19.7

row,Compound,"hERG current change (%, negative = inhibition) at 10uM [%]"
1,OCC[C@@H]1C[C@@H](O)[C@H](O)[C@@]2(OCCc3ccccc32)O1,21.9
2,Cc1ccc(CNC(=O)COC(=O)CSc2ccc(Br)cc2C)cc1,10.9
3,COc1cccc(N2C(=O)C(CC(=O)Nc3ccc(F)cc3)N(C3CCCCC3)C2=O)c1 (stereo not drawn),-7.12
4,Cc1ccc(S(=O)(=O)N(C)C)cc1[N+](=O)[O-],-4.14
5,Cc1ccc(C(=O)Nc2cc(Cl)ccc2Oc2ccccc2)cc1[N+](=O)[O-],20.3
6,CCCc1cc(=O)[nH]c(SCC(=O)N(CCOC)c2c(N)n(Cc3ccccc3)c(=O)[nH]c2=O)n1,-6.63
7,CCOC(=O)c1cnc(SCc2ccc(C)cc2)nc1N,-0.61
8,Cc1cc(C)c[n+](-c2[nH]c(=O)sc2/C=N/NC([S-])=Nc2ccccc2)c1,19.1
9,O=C(O)CCc1ccc(-c2ccc(Br)cc2)n1-c1ccc(O)cc1,6.94
10,CCCC[C@@H]1C[C@H]1[C@@H](NC(=O)c1ccco1)c1ccc(Cl)cc1,-50.2
11,CCOC(=O)c1sc(NCC2CCCO2)nc1C (stereo not drawn),9.92
12,COc1ccc(/C=N/NC(=O)CC(=O)NCCc2ccccc2)cc1OC,3.66
13,Cc1c(Cl)cccc1NC(=O)Nc1cc(C(C)(C)C)nn1C,11.7
14,CCOc1cc2c3c(c1)C1(OCCO1)C(=O)N3C(C)(C)CC2C (stereo not drawn),-5.16
15,COc1cc(/C=C2/SC(=S)N(CC(=O)O)C2=O)ccc1OCC(=O)Nc1ccc(C)c(C)c1,-6.69
16,C[C@@H]1CN(Cc2nc(-c3cccs3)no2)C[C@H](C)O1,3.96
17,COc1ccc(NC(=O)Nc2ccncc2)c(OC)c1,17
18,CCN(CCO)C(=O)C(c1ccccc1)c1ccccc1,14.8
19,O=[N+]([O-])c1ccc(SCCO)nc1SCCO,-1.63

row,Compound,"hERG current change (%, negative = inhibition) at 10uM [%]"
1,Clc1cc(Cl)cc(Nc2ncnc(-n3cccc3)n2)c1,9.8
2,O=C(CSc1ccc(Cl)cc1)N1CCOCC1,-6.37
3,CCC(C)(C)c1ccc(OCCN2C(=O)NC(C)(C)C2=O)cc1,0.378
4,CCOC(=O)c1nc(Nc2ccc(N3CCC(C)CC3)cc2)c2ccccc2n1,-17.1
5,CCc1nnc(NC(=O)CN2CCN(c3nc(-c4ccccc4)cs3)CC2)s1,-11.8
6,N#Cc1cn(-c2ccccc2)nc1-c1ccccc1,0.313
7,CC(C)C(=O)Nc1ccc(NC(=O)CCc2ccccc2)cn1,18.4
8,Cc1ccc(-n2nnnc2Sc2nc([N+](=O)[O-])nn2C)c(C)c1,-27.6
9,CCOC(=O)C1CCN(CCC(=O)Nc2ccc(C)c(C)c2)CC1,-54.2
10,CS(=O)(=O)N(CC(=O)N1CCCCCC1)c1ccccc1,-3.51
11,CCOC(=O)[C@H]1[C@H]2COc3ccc(OC)cc3[C@@H]2N2C(=O)CN(Cc3ccc(OC)cc3)C(=O)[C@@]12C,-28.9
12,COc1ccc(NCc2nnc(SCC(=O)c3ccc(C)cc3)o2)cc1,-19.1
13,Cc1c(Cl)cccc1NC(=O)CCN1CCC(C(N)=O)CC1,-7.36
14,CN(CC(=O)Nc1ccccc1Br)C(=O)CCSc1ccc(F)cc1,-34.1
15,O=C(NCCNC(=O)c1cc(F)cc(F)c1)c1cc(F)cc(F)c1,16.5
16,O=C1N=C(N2CCOCC2)S/C1=C\c1ccccc1OS(=O)(=O)c1ccccc1,0.61
17,CCCCn1c(O)c(C(CC)=NCCc2ccccc2)c(=O)[nH]c1=O,-36.8
18,Cc1cccc(C)c1NC(=O)/C(C#N)=C/c1cccs1,-6.39
19,O=[N+]([O-])c1cccc(S(=O)(=O)NCC2CC3CCC2C3)c1 (stereo not drawn),3.6
